# The other results are listed elsewhere or left out. Sequences were assembled here from the parent chain. Values near 0.05 are background.
# B1: TEV protease; numbered along this chain (parent)
# chain: MGESLFKGPRDYNPISSSICHLTNESDGHTTSLYGIGFGPFIITNKHLFRRNNGTLVVQSLHGVFKVKDTTTLQQHLVDGRDMIIIRMPKDFPPFPQKLKFREPQREERICLVTTNFQTKSMSSMVSDTSCTFPSGDGIFWKHWIQTKDGQCGSPLVSTRDGFIVGIHSASNFTNTNNYFTSVPKNFMELLTNQEAQQWVSGWRLNADSVLWGGHKVFMVKPEEPFQPVKEATQL
# Variants of: B1
# Assay: raw area under fraction-flipped curve 0-4 h after induction (AUC4h, not background-subtracted), DNA-recorder readout of cleavage of the substrate (dimensionless); higher = more cleavage of the substrate by the protease variant
# Settings: temperature: 34 °C; time window: 0-4 h after rhamnose induction
# Procedure: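 In vivo DNA recorder in E. coli TOP10(DE3) ΔrhaA at 34 °C. Each TEVp single-site mutant (parent TEVp 0) is paired with a single-site variant of the 7-mer TEVs (canonical ENLYFQ|S). The substrate sits between flexible linkers in a Bxb1-sfGFP-TEVs-SsrA fusion, so cleavage stabilises Bxb1 and speeds flipping of a recombination array, read by NGS. The value is the raw area under the fraction-flipped curve over 0-4 h after rhamnose induction (AUC4h), with ≥20 reads per time point. It is not background-subtracted; inactive controls average about 0.047.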
# 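Also: Bxb1 expression induced with 0.2% (w/v) L-rhamnose at OD600 near 0.5, cultures sampled hourly, flipped fraction per protease–substrate barcode pair counted by paired-end Illumina sequencing.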
Variant,area with substrate EALYFQS,area with substrate ECLYFQS,area with substrate EDLYFQS,area with substrate EELYFQS,area with substrate EFLYFQS,area with substrate EGLYFQS,area with substrate EHLYFQS,area with substrate EILYFQS,area with substrate EKLYFQS,area with substrate ELLYFQS,area with substrate EMLYFQS,area with substrate EPLYFQS,area with substrate EQLYFQS,area with substrate ERLYFQS,area with substrate ESLYFQS,area with substrate ETLYFQS,area with substrate EVLYFQS,area with substrate EWLYFQS,area with substrate EYLYFQS
T174D,0.0983,0.113,0.0917,0.083,0.132,0.0685,0.0909,0.101,0.101,0.0692,0.117,0.0949,0.115,0.0655,0.101,0.096,0.0848,0.0754,0.1
N175K,0.112,0.0821,0.164,0.122,0.159,0.082,–,0.0832,0.0864,0.0946,–,0.135,0.105,0.0794,0.125,0.102,0.0942,–,0.0881
T176C,0.0826,–,–,–,0.0582,–,–,–,0.088,0.0653,–,–,–,–,–,–,0.0704,0.078,–
T176D,0.0736,–,0.0926,–,–,0.0846,–,0.0677,0.0864,–,0,–,–,0.0578,0.0797,–,–,–,–
T176F,0.0964,0.0592,0.0669,–,–,–,0.0677,–,0.0558,–,–,–,0.0743,–,–,–,0.0762,0.0712,–
T176I,0.0777,0.078,0.08,0.0954,–,0.0619,0.0802,0.0551,0.0684,0.0701,0.105,0.0821,0.069,0.0652,0.0759,–,0.0707,0.0671,–
N177E,0.106,0.109,0.106,0.126,0.115,0.101,0.0855,0.108,0.109,–,0.0912,0.11,0.122,0.0889,0.121,–,0.0829,0.0979,0.112
P184C,0.122,0.0972,0.104,–,0.0776,–,–,0.0833,0.137,–,–,0.0923,–,–,0.175,0.099,0.0768,–,–
P184G,0.1,0.086,0.11,–,–,0.0743,0.0797,0.0665,–,0.0759,0.0808,–,–,0.152,0.0948,–,0.0923,0.0555,0.0654
P184H,0.0788,–,–,0.0948,–,0.0668,0.0577,0.0826,0.0847,0.0614,–,–,0.0918,–,0.0736,0.056,0.0719,–,–
P184L,0.0394,0.0805,0.073,0.0642,–,–,–,0.0536,0.0639,–,0.058,–,0.0668,–,0.0723,–,0.0735,–,–
P184N,0.0728,0.0728,0.0921,–,0.0753,–,0.0556,0.0668,–,–,–,0.082,0.0877,0.0851,0.0792,0.0771,0.0789,0.077,–
P184S,0.0994,0.0787,0.0986,0.0601,–,–,0.0832,0.0806,0.0707,0.0627,0.0946,0.0776,0.0908,0.0847,0.0838,0.0815,0.0721,0.0835,0.0801
T192E,0.167,0.0932,–,–,–,0.109,–,0.0841,0.075,0.0861,0.108,–,0.108,0.0932,0.11,0.118,0.0971,–,0.0998
T192I,0.105,0.0883,0.0966,0.0896,0.108,0.0848,0.0827,0.107,0.104,0.114,0.103,0.103,0.127,0.106,0.102,0.096,0.105,0.0929,0.0915
T192Q,0.113,–,0.0725,–,0.129,0.0866,0.0885,0.0882,0.0936,–,–,0.117,–,0.0496,0.102,0.11,0.121,0.114,–
Q197W,0.0841,0.102,0.095,0.108,0.1,0.0892,–,0.105,0.0933,0.0649,0.0744,0.0715,0.096,0.0894,0.0814,–,0.0906,–,0.0844
Q198K,0.129,0.114,0.118,0.109,0.0985,0.095,0.117,0.103,0.118,0.115,0.123,–,0.0969,0.093,0.111,0.128,0.102,0.124,0.0961
V200H,0.0733,0.0601,0.0846,0.103,0.0866,–,0.0724,0.0747,0.0703,0.0669,–,0.0932,0.0826,0.0693,0.073,–,0.0711,–,0.0649
W203A,0.146,0.0615,0.0894,0.0924,0.0669,0.0613,–,0.0585,–,0.0591,0.0645,0.0935,0.0745,0.0508,0.0641,–,0.0574,0.0606,–
R204H,0.126,0.126,0.129,0.112,0.0809,–,0.1,0.0978,–,–,–,0.11,0.113,0.11,0.11,0.109,0.0819,0.116,0.108
R204K,0.127,0.139,0.187,0.125,0.112,0.0974,0.0825,0.0841,0.103,–,0.121,0.139,0.147,0.125,0.112,0.119,0.101,0.0677,–
D208K,0.0873,–,–,–,–,0.0498,–,–,–,–,0.0822,–,0.0921,0.0677,–,–,0.0645,–,–
D208Q,0.108,0.0828,0.0989,–,–,–,0.0974,–,0.0997,0.0618,0.078,0.0794,0.0788,0.074,0.0651,–,0.0701,0.0682,–
D208V,0.0745,0.0776,–,0.083,–,0.0596,0.0737,0.0771,0.0643,0.0706,0.0869,–,–,0.08,0.0684,0.0566,0.0759,0.0567,0.0586
K216F,0.0881,–,0.09,0.0843,–,–,–,0.0628,0.0972,0.0937,0.0963,–,0.0977,0.0876,0.0893,–,–,–,–
